Each compound was assayed on Influenza A virus (assay: microbe, parasite or virus in culture). Details: A/Hebei Xinhua/SWL1106/2017 (H1N1) pdm09, MDCK.

Q: How did the EC50 turn out when NC12CC3CC(CC(C3)C1)C2 [AMANTADINE] was run?
A: > 533 µM

Q: With CCOC(=O)C1=C[C@@H](OC(CC)CC)[C@H](NC(C)=O)[C@@H](N)C1 [OSELTAMIVIR] as the compound, how does the EC50 read?
A: > 244 µM

Q: For CC(=O)N[C@H]1[C@H]([C@H](O)[C@H](O)CO)OC(C(=O)O)=C[C@@H]1NC(=N)N [ZANAMIVIR], which EC50 is on record?
A: 5.09 µM

Reference: ChEMBL document CHEMBL4732179, “Design, synthesis, and bioassay of 4-thiazolinone derivatives as influenza neuraminidase inhibitors” (Eur J Med Chem, 2021)
